This note sets out measurements from the supplement of paper PMC12217912.

B1: TEV protease; numbered along this chain (parent)
chain: MGESLFKGPRDYNPISSSICHLTNESDGHTTSLYGIGFGPFIITNKHLFRRNNGTLVVQSLHGVFKVKDTTTLQQHLVDGRDMIIIRMPKDFPPFPQKLKFREPQREERICLVTTNFQTKSMSSMVSDTSCTFPSGDGIFWKHWIQTKDGQCGSPLVSTRDGFIVGIHSASNFTNTNNYFTSVPKNFMELLTNQEAQQWVSGWRLNADSVLWGGHKVFMVKPEEPFQPVKEATQL

This is one part of the list. Sequences were assembled here from the parent chain. Values near 0.05 are background.

In the test the parent is B1. The test can be described thus: raw area under fraction-flipped curve 0-4 h after induction (AUC4h, not background-subtracted), DNA-recorder readout of cleavage of the substrate (dimensionless); higher = more cleavage of the substrate by the protease variant. The conditions noted are these: temperature: 34 °C; time window: 0-4 h after rhamnose induction. How it is done: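 In vivo DNA recorder in E. coli TOP10(DE3) ΔrhaA at 34 °C. Each TEVp single-site mutant (parent TEVp 0) is paired with a single-site variant of the 7-mer TEVs (canonical ENLYFQ|S). The substrate sits between flexible linkers in a Bxb1-sfGFP-TEVs-SsrA fusion, so cleavage stabilises Bxb1 and speeds flipping of a recombination array, read by NGS. The value is the raw area under the fraction-flipped curve over 0-4 h after rhamnose induction (AUC4h), with ≥20 reads per time point. It is not background-subtracted; inactive controls average about 0.047.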
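Note: Bxb1 expression induced with 0.2% (w/v) L-rhamnose at OD600 near 0.5, cultures sampled hourly, flipped fraction per protease–substrate barcode pair counted by paired-end Illumina sequencing.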

Turning to P40R, the “area with substrate ANLYFQS” value is 0.0732, the “area with substrate CNLYFQS” value came to 0.0539, the “area with substrate DNLYFQS” value was found to be 0.126 and the “area with substrate GNLYFQS” value came to 0.0727. The “area with substrate HNLYFQS” value turned out to be 0.0495, the “area with substrate INLYFQS” value was found to be 0.0825, the “area with substrate KNLYFQS” value is 0.0701 and the “area with substrate MNLYFQS” value was 0.0653. For the same variant, the “area with substrate NNLYFQS” value turned out to be 0.0686, the “area with substrate PNLYFQS” value is 0.0708, the “area with substrate SNLYFQS” value was 0.0701 and the “area with substrate TNLYFQS” value came out at 0.0533. The “area with substrate WNLYFQS” value amounted to 0.0672 and the “area with substrate YNLYFQS” value was found to be 0.0578.
In the case of P40G, the “area with substrate ANLYFQS” value came out at 0.0704, the “area with substrate CNLYFQS” value worked out at 0.0655, the “area with substrate DNLYFQS” value is 0.0968 and the “area with substrate FNLYFQS” value turned out to be 0.0728. Further, the “area with substrate GNLYFQS” value came to 0.0855, the “area with substrate HNLYFQS” value was 0.0631, the “area with substrate INLYFQS” value came to 0.0674 and the “area with substrate KNLYFQS” value is 0.0682. For the same variant, the “area with substrate LNLYFQS” value stood at 0.0479, the “area with substrate MNLYFQS” value was 0.0342, the “area with substrate NNLYFQS” value amounted to 0.0819 and the “area with substrate PNLYFQS” value came out at 0.0703. The “area with substrate SNLYFQS” value came to 0.0712, the “area with substrate WNLYFQS” value turned out to be 0.034 and the “area with substrate YNLYFQS” value came to 0.0677.
In the case of P96N, the “area with substrate ANLYFQS” value was determined as 0.0651, the “area with substrate CNLYFQS” value was determined as 0.0745, the “area with substrate DNLYFQS” value was found to be 0.123 and the “area with substrate HNLYFQS” value is 0.066. For the same variant, the “area with substrate INLYFQS” value was 0.0591, the “area with substrate KNLYFQS” value stood at 0.0606, the “area with substrate MNLYFQS” value turned out to be 0.0646 and the “area with substrate NNLYFQS” value came to 0.0589. Further, the “area with substrate PNLYFQS” value is 0.067, the “area with substrate RNLYFQS” value is 0.0728, the “area with substrate SNLYFQS” value came to 0.0591 and the “area with substrate TNLYFQS” value was found to be 0.0609. Also, the “area with substrate WNLYFQS” value is 0.05 and the “area with substrate YNLYFQS” value came to 0.0567.
Regarding P96K, the “area with substrate ANLYFQS” value was 0.0598, the “area with substrate CNLYFQS” value was found to be 0.0547, the “area with substrate DNLYFQS” value worked out at 0.0933 and the “area with substrate HNLYFQS” value was 0.0683. Moreover, the “area with substrate INLYFQS” value turned out to be 0.0684, the “area with substrate KNLYFQS” value came out at 0.0613, the “area with substrate LNLYFQS” value was 0.0593 and the “area with substrate MNLYFQS” value stood at 0.0559. The “area with substrate PNLYFQS” value was 0.0689, the “area with substrate SNLYFQS” value was 0.0634 and the “area with substrate WNLYFQS” value is 0.0632.
Take I43R: the “area with substrate ANLYFQS” value is 0.0672, the “area with substrate CNLYFQS” value was found to be 0.0417, the “area with substrate DNLYFQS” value came out at 0.0344 and the “area with substrate FNLYFQS” value was 0.0474. In addition, the “area with substrate GNLYFQS” value is 0.0388, the “area with substrate HNLYFQS” value came out at 0.0405, the “area with substrate INLYFQS” value is 0.0459 and the “area with substrate KNLYFQS” value was found to be 0.0309. Further, the “area with substrate PNLYFQS” value worked out at 0.0384, the “area with substrate QNLYFQS” value amounted to 0.0772, the “area with substrate SNLYFQS” value is 0.0521 and the “area with substrate TNLYFQS” value came out at 0.0459. In addition, the “area with substrate VNLYFQS” value is 0.0401, the “area with substrate WNLYFQS” value came to 0.0515 and the “area with substrate YNLYFQS” value was 0.0417.
In the case of I43K, the “area with substrate ANLYFQS” value was found to be 0.0445, the “area with substrate CNLYFQS” value is 0.0512, the “area with substrate DNLYFQS” value is 0.057 and the “area with substrate FNLYFQS” value was determined as 0.0521. In addition, the “area with substrate GNLYFQS” value amounted to 0.0481, the “area with substrate HNLYFQS” value came to 0.0469, the “area with substrate INLYFQS” value came out at 0.0449 and the “area with substrate KNLYFQS” value was found to be 0.0427. The “area with substrate LNLYFQS” value turned out to be 0.0303, the “area with substrate MNLYFQS” value was found to be 0.0553, the “area with substrate NNLYFQS” value was 0.037 and the “area with substrate PNLYFQS” value worked out at 0.0529. Further, the “area with substrate QNLYFQS” value worked out at 0.0481, the “area with substrate TNLYFQS” value worked out at 0.0503 and the “area with substrate WNLYFQS” value stood at 0.0529.
